In the RNAGym collection of RNA variant scans (doi:10.7554/elife.90254) one finds self-cleavage data, which are given here for 56 variants.

Sequences and labels used below:
B1: LINE1-mini (parent)
chain: GGCAGAGCUCAACACAGCGUGGCAAAGUGGCUGUGGCUAGACUGCC

Read counts are not given, so values of variants with three or more changes are uncertain.

Variants of B1 are the subject of the data set. Briefly: self-cleavage, relative activity (ratio to wild type); higher = more cleavage; in vitro, sequencing; the parent is a self-cleaving ribozyme.
On to GGCAGAGCGCAACACAGCGUGGCAAAGUGGCUGUGGUUAGACAGCU, for which the self-cleavage amounted to 0.19.

With GGCAGAGCGCAACACAGCGUGGCAAAGUGGCUGUGGCUAGACUGAU, the self-cleavage worked out at 0.11.

Turning to GGCAGAGCGCAAAACAGCGUGGCAAAGUGGCUGUGGCUAAACUUCC, the self-cleavage was determined as 0.03. On to GGCAGAGCGCAACAUAGCGUGGCAAAGUGGCUGUGGCUAGACAGGC, for which the self-cleavage was found to be 0.03. Under GGCAGAGCGCAACACAGUGUGGCAAAGUGACAGAGGCUAGACUGCC stands 0.03; under GGCAGAGCGCAACAGAGCGUGGCAAAGUGUCGGUGGCGAGACUGCC, 0.1; under GGCAGAGCGCAACAAAGCGGGGCAAAGUGACUGGAGCUAGACUGCC, 0.09.

For GGCAGAGCGUACCACAGCGUGGCAAAGUGGGUGUGGCAAGACUGCC, the self-cleavage worked out at 0. Regarding GGCAGAGCGCAACACAUUGUGGCAAAGUGGCUGUGGCUAGACCGGC, the self-cleavage came out at 0.05. On to GGCAGAGCGCAACACAGCAUGGCAAAGUGGAUGUGGCUAGACUGCC, for which the self-cleavage came out at 0.01.

For the variant GGCAGAGCGCAACACAACGUGGCAAGGUGGCUGUGGCUAGACCGCC, the self-cleavage was found to be 0.01. As for GGCAGAGCGCAACAUAGCGUGGCAAAGUGGCUAUGGCUAGACUGCC, the self-cleavage is 0.09. Turning to GGCAGAGCGCAACACAGGGUGGCAAAGUGGCUGUGGCUACACUGCC, the self-cleavage was 0.05. Under GGCAGAGCGCAACACAGCGUGGAAAAGUGGCUGUGGCCAGACUGCC stands 0.04; under GGCAGAGCGCAACACAGUGUGGCAAAGUCGCUGUGGUUAGACUGCC, 0.06.

In the case of GGCAGAGCGCAACACAGGGUGACAAAGUGGCUGUGGCUAGACUGCC, the self-cleavage turned out to be 0.03. Consider GGCAGAGCGGAACACAGCGUGGCAAAAUGGCUGUGGCUAGACUGCG, for which the self-cleavage worked out at 0.01. On to GGCAGAGCGAAACACAGCGUGCCAAAGUGGCUGUGGCUAGACUGCC, for which the self-cleavage amounted to 0.02.

In the case of GGCAGAGCGCAAAACAGCGUGGUAAAGUGGGUGUGGCUAGACUGCC, the self-cleavage was 0.08. With GGCAGAGCGCAAAACAGCGUGGCAAAAGGGCUGUGGCUAGACUGCC, the self-cleavage came out at 0.03. In the case of GGCAGAGCGCAACACAGCGUGGCAAAGUGGCUGUGGAAAGACUGCC, the self-cleavage stood at 0.03. Regarding GGCAGAGCGCAAGACAGCGUGGCAAAGGGGCUGUGGCUAGACUGCC, the self-cleavage was 0.06. In the case of GGCAGAGCGGAACACAACAUGGCAAAGUGUCUGUGGCUAGACUGCC it was 0.01; in that of GGCAGAGCGCAACACAGAGUGGCAAGGUGGCUGUGGUUAGAUUGAC, 0.06. For GGCAGAGCGCAACACAUCGUGUCAAAGUGGCUGUGGCUAGACUGCC, the self-cleavage was 0.04.

Take GGCAGAGCGCAACAGAGCGUUGAUAAGUGGCUGUGGCUAGAAUGCC: the self-cleavage worked out at 0.02. In the case of GGCAGAGCGCAACAGAGCGUUGUAAAGUGCCUGUGGCUAGACUGCC, the self-cleavage was 0.01. With GGCAGAGCGCAACACAACCUGACACAGUGGCUGUGGCUAGACUGCC, the self-cleavage amounted to 0.05. As to GGCAGAGCGCAACAAAGCGUGGCAAAGUGGCUGUGGCUAGACUGCA, the self-cleavage worked out at 0.05.

On to GGCAGAGCGCAACAGAGCGUGGCAAAAUGGCUGUGUCUAGACUGCC, for which the self-cleavage stood at 0.03.

Consider GGCAGAGCGCAACAAAGUGUGGAGAAGUGGCUGUGGCUAGACUGCC, for which the self-cleavage is 0.05. For the variant GGCAGAGCGCAACACACCGUGGCAAAGUGGCUGUGGUUAGACUGCC, the self-cleavage was found to be 0.35.

As for GGCAGAGCGCAACACAGCGUCGCAAAGUGGCUGUGGCUAGACUGCA, the self-cleavage came to 0.1. Consider GGCAGAGCGUAACACAGCGUGGCAAAGUGGCUCUGGCAAGACUGCC, for which the self-cleavage is 0.01. On to GGCAGAGCGCAAAACAGAGUGGCAACGUGGCUGUGGUUAGAGUGCC, for which the self-cleavage was found to be 0.01. In the case of GGCAGAGCGCAACAUAUCCUGGCAAAGUGGCUGUGGCUACACUGCC it was 0.06. Consider GGCAGAGCGCAACAUAACGUGGCAAAGUGGCUGUGGAUAGACUGCC, for which the self-cleavage is 0.07. Take GGCAGAGCGCAACACAGCAUGGCAAAGUCGCUGUGGCGAGACUGCC: the self-cleavage came to 0.

With GGCAGAGCGCAACACACCUGCGCAAAGUGGCUGUGGCUAGACUUCC, the self-cleavage was 0.02. Regarding GGCAGAGCGCAACACAGCGUGGCAAAGUGGAUGUGGCUAGAAUGCC, the self-cleavage came out at 0.01. Regarding GGCAGAGCGCAAUACAGCGUGGCAAAGUGGCCGCGGCUAGACUGCC, the self-cleavage is 0.11. Under GGCAGAGCGCAACACAGCGUGGAAAACUGGCUGUGGGUAGACUGCC stands 0.07. Turning to GGCAGAGCGCAACACAGCGUGGCAAAGUGGCUGUGGUAAGACUGCA, the self-cleavage was 0.03. With GGCAGAGCGAAACACAACGUGGCAAAGUGGCUGUGGCUAGACUGCC, the self-cleavage turned out to be 0.03. GGCAGAGCGGAAAACAGCGUGGCAAAGUGGCUGUGGCUAUACUGCC: the self-cleavage was 0.03.

As to GGCAGAGCGCAACACAUCGUGGCAAAGUGGCUGUGCCUAGACUGCC, the self-cleavage was 0.03. With GGCAGAGCGCAACACAGCGUACCAAAGUGGCUGUGGCUAGACUGCC, the self-cleavage is 0.16. With GGCAGAGCGCAAUACAGCGUGGCAAAGUGGAUGUGGCUAGCCUGCC, the self-cleavage was 0.09. As to GGCAGAGCGCAAGACAGCCUGGCAAAGUUUCGGUGGCUAGACUGCC, the self-cleavage was 0.06.

For GGCAGAGCGCAACAAAGCGUGGUAAAGUGGCUGUGGCUAGACUGCC, the self-cleavage amounted to 0.05. In the case of GGCAGAGCGCAACACAGUGUGGCAAAGUGGCUGUGCCUAGACCGCC it was 0.01; in that of GGCAGAGCGGAACAAAGCGAGGCAAAGUGGCUGUGGCUAGACUGCC, 0.03; in that of GGCAGAGCGCAACAUAGCGUGGCAAAGAGGCUGUGGCUAGACUGCC, 0.04.

Regarding GGCAGAGCGCAACAGAGCGUGGCAAAGUGGGUGUUGCUAGCCUGCC, the self-cleavage was 0.

GGCAGAGCGCAAGACGGCAUGGCAAAGUGGCUGUGGAUAGCCUGCC: the self-cleavage was 0.03.

Regarding GGCAGAGCGCAACAAAGCGUGGGCAAGUGGCUGUGGCUAGACUGCC, the self-cleavage came out at 0.03.
